PubChem BioAssay AID360 (National Center for Advancing Translational Sciences (NCATS), 2006)
The campaign covered roughly 48,000 compounds. About 550 (1.1%) were called active. About 4% were inconclusive and are not listed. Cut-off read from the data, not from the text of the source: active = potency below about 15 µM; inconclusive = mostly about 16 µM to 33 µM; inactive = weaker than that. This is one part of the list.

Biological target: Lysosomal acid glucosylceramidase (Homo sapiens) (UniProt P04062)
UniProt P04062, sequence (P04062 whole entry, looked up): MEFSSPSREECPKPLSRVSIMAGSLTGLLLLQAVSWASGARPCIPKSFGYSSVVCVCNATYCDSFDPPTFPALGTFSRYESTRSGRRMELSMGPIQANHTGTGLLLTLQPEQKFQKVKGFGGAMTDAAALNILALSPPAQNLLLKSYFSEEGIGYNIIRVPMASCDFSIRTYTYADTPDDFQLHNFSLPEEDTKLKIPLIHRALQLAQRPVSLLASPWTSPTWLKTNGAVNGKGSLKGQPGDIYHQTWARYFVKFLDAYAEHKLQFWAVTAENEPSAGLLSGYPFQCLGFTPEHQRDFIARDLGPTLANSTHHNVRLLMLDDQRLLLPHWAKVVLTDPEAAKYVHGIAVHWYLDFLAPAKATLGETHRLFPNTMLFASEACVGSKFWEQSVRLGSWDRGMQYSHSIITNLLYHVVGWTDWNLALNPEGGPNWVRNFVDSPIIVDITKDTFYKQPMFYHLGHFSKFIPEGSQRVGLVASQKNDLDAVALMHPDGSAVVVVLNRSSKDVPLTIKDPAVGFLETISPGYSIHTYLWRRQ
Assay: Glucocerebrosidase;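 note: the screen sought inhibitors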
Details: purified enzyme, resorufin glucoside fluorescence (screen aimed at inhibitors), 20 min
Procedure, shortened: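 Normal human glucocerebrosidase (0.2 nM final) was assayed with resorufin β-D-glucopyranoside (30 uM final) in 50mM citric acid/KH2PO4, 10mM sodium taurocholate, 0.01% tween-20, pH 5.9. Compounds were titrated; fluorescence (Ex 548, Em 600) read after 20 min at RT.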
Potency is the fitted concentration of half-maximal effect.

Potency, inactive:
O=C(O)c1ccc(Cn2cc(Cl)cn2)cc1 > 76.9 µM
CCOC(=O)c1cn(CC(=O)Nc2ccc(CC)cc2)nn1 > 76.9 µM
c1ccc(-n2c(-c3ccncc3)nnc2-c2ccco2)cc1 > 76.9 µM
COC(=O)[C@H](C)NC(=O)Nc1ccc(OC(F)(F)F)cc1 > 76.9 µM
COCc1nc(-c2ccc(-c3ccc(C)cc3)nc2OC)no1 > 76.9 µM
Cc1cccc(-n2c(C)nc3c(cnn3-c3ccc(F)cc3)c2=O)c1 > 76.9 µM
Cc1nnc(SCC(=O)Nn2cnnc2)s1 > 76.9 µM
CC(=O)N(CN1C(=O)c2ccccc2C1=O)c1ccccc1 > 76.9 µM
O=C(Nc1nnc(SCc2ccc(F)cc2)s1)c1ccco1 > 76.9 µM
COc1ccccc1NC(=O)Cn1nnc(-c2ccccc2NC(=O)c2cccs2)n1 > 76.9 µM
COC(=O)c1ccccc1NC(=O)Cn1cnc2ccc(S(=O)(=O)N3CCC(C)CC3)cc2c1=O > 76.9 µM
CCOC(=O)c1ccc(NS(=O)(=O)c2cccc3nsnc23)cc1 > 76.9 µM
CCCc1nnc(SCc2ccc(C(=O)OC)o2)n1N > 76.9 µM
O=C(Nc1ccccc1C(=O)N1CCCCCC1)c1cccc(S(=O)(=O)N2CCOCC2)c1 > 76.9 µM
COc1ccc2nc(C)cc(N3CCOCC3)c2c1 > 76.9 µM
N#Cc1ccc(Cn2c(=O)c(C#N)c3n(c2=O)CCC3)cc1 > 76.9 µM
CCS(=O)(=O)N1CCC(c2nc(-c3ccc(C)cc3)no2)CC1 > 76.9 µM
c1ccc(-c2nc3cc(Cc4ccc5oc(-c6ccccn6)nc5c4)ccc3o2)nc1 > 76.9 µM
CC1(C)CC2CC(C)(CN2C(=O)COC(=O)c2ccc(Cl)cc2N)C1 (centres undefined) > 76.9 µM
Cc1cnc(C(=O)Nc2cccc3ncccc23)cn1 > 76.9 µM
CCCCn1c(NC(=O)c2ccccc2Cl)c(C#N)c2nc3ccccc3nc21 > 76.9 µM
Cc1csc(NC(=O)CSc2ncnc3c2cnn3-c2ccccc2Cl)n1 > 76.9 µM
O=C1NCCN1C(=O)C12CC3CC(CC(C3)C1)C2 > 76.9 µM
CCOc1cc2[nH]c(=S)n(CC3CCCN3CC)c(=O)c2cc1OCC (centres undefined) > 76.9 µM
CCn1c(SCC(=O)c2cccs2)nnc1-c1ccco1 > 76.9 µM
CN(CCNC(=O)CN1CCN(Cc2ccccc2Cl)C1=O)Cc1ccccc1 > 76.9 µM
Cc1nn(-c2ccccc2)c2[nH]c(=O)c(CNc3ccc4c(c3)OCCO4)cc12 > 76.9 µM
CC1CCCCN1C(=O)CSc1nc2ccsc2c(=O)n1Cc1ccccn1 (centres undefined) > 76.9 µM
COc1ccc(S(=O)(=O)Nc2cc(OC)c(NC(=O)c3ccco3)cc2OC)cc1 > 76.9 µM
CN1CCN(S(=O)(=O)c2ccc(NC(=O)c3ccco3)cc2)CC1 > 76.9 µM
O=S(=O)(c1ccc(OCC(O)CN2CCN(c3ccccc3)CC2)cc1)N1CCOCC1 (centres undefined) > 76.9 µM
Cc1ccc2nc(SCC(=O)N3CCCC3)[nH]c2c1 > 76.9 µM
CCOC(=O)C1CCCN(c2ncnc3c2[nH]c2cccc(OC)c23)C1 (centres undefined) > 76.9 µM
COC(=O)C(O)(CC(=O)Nc1ccc(Cl)cc1F)C(F)(F)F (centres undefined) > 76.9 µM
COc1ccc(CCC(=O)N2CC(C)OC(C)C2)cc1 (centres undefined) > 76.9 µM
COc1ccc(CCNC(=O)C2CCN(S(=O)(=O)c3cccc4nsnc34)CC2)cc1OC > 76.9 µM
CCN(CC)S(=O)(=O)c1ccc(-c2nnc(SCc3nnc(-c4ccc(C)cc4)o3)o2)cc1 > 76.9 µM
CCc1ccc(N2CC(C(=O)OCC(=O)NC3CCS(=O)(=O)C3)CC2=O)cc1 (centres undefined) > 76.9 µM
COCCOC(=O)c1c(C)n(C)c2ccc(OC(=O)N3CCOCC3)cc12 > 76.9 µM
CCOc1ccc2sc(NS(=O)(=O)c3ccc(OC)c(OC)c3)nc2c1 > 76.9 µM
COc1cc(NS(=O)(=O)c2ccc(NC(=O)C3CCCO3)cc2)nc(OC)n1 (centres undefined) > 76.9 µM
CN1C(=O)C(O)(CC(=O)c2cccc(-n3cccc3)c2)c2ccccc21 (centres undefined) > 76.9 µM
Cc1cc(C)n2nc(-c3cccnc3)nc2n1 > 76.9 µM
N#C/C=C1/NC(=O)c2ccccc2S1 > 76.9 µM
CC(C)CCNC(=O)CN(CC1CCCO1)C(=O)CCC(=O)Nc1nccs1 (centres undefined) > 76.9 µM
COc1ccc(OC)c(C2=NOC(C(=O)Nc3cccc(C(C)=O)c3)C2)c1 (centres undefined) > 76.9 µM
O=C(Cc1c(F)cccc1Cl)N1CCCC1 > 76.9 µM
NC(=O)C1CCN(c2ncnc3c(-c4ccccc4)nsc23)CC1 > 76.9 µM
COc1ccccc1OCCCn1c(=O)sc2ccccc21 > 76.9 µM
Cc1[nH]c(=S)n(CC2CCCO2)c1C (centres undefined) > 76.9 µM
CCOC(=O)c1cc(S(=O)(=O)N2CCN(C(=O)OCC)CC2)cn1C > 76.9 µM
COc1ccc(C)cc1N(CC(=O)O)S(=O)(=O)c1ccc(C)cc1 > 76.9 µM
O=S1(=O)N=C(N2CCN(Cc3ccc4c(c3)OCO4)CC2)c2ccccc21 > 76.9 µM
Cc1onc(-c2c(F)cccc2Cl)c1C(=O)Nc1cccc2nsnc12 > 76.9 µM
Cc1sc2ncnc(-n3cnc4ccccc43)c2c1C > 76.9 µM
Cc1ccc(S(=O)(=O)Nc2cc(NC(=O)CN3CCOCC3)ccc2Cl)cc1 > 76.9 µM
Cc1ccccc1-c1noc(-c2ccccc2C(=O)N2CCCC2)n1 > 76.9 µM
CCOC(=O)c1cnc(-n2nc(C)cc2C)nc1NC > 76.9 µM
Cn1c(=O)c2c(ncn2CC(=O)OCc2ccccc2)n(C)c1=O > 76.9 µM
CC(C)NC(=O)N(O)C1N(Cc2ccc3c(c2)OCO3)C(=S)SC1(C)C (centres undefined) > 76.9 µM
CCOC(=O)C1=C(C)NC(C)=C(C(=O)OCC)C1C1=COCCO1 > 76.9 µM
Oc1ccccc1-c1nc(NCC2CCCO2)c2ccccc2n1 (centres undefined) > 76.9 µM
CCN1CCN(C(=O)c2nn(-c3ccc(OC)cc3)c(=O)c3c2c2ccccc2n3C)CC1 > 76.9 µM
O=C(CSc1nnc(-c2cccs2)n1-c1ccccc1)NCc1ccc2c(c1)OCO2 > 76.9 µM
Cc1ccccc1Cn1ccc(NC(=O)c2cnn3cccnc23)n1 > 76.9 µM
CCc1ccc(-c2nc(CN3CCC(C(=O)NCCN(CC)c4ccccc4)CC3)c(C)o2)cc1
Clc1ccc(NCc2nncn2-c2ccccc2)cc1 > 76.9 µM
CCCCCCN=C(C)C1=C(O)C(C(=O)OC)C(C)(C)CC1=O (centres undefined) > 76.9 µM
Clc1ccccc1COc1ccccc1-c1nnco1 > 76.9 µM
O=C(CSc1ccc(-c2ccccc2)nn1)N1CCOCC1 > 76.9 µM
O=C(C1CSC2(c3ccc(F)cc3)CCC(=O)N12)N1CCCCCC1 (centres undefined) > 76.9 µM
CCOC(=O)CNC(=O)C(NC(=O)C1CCC(C)CC1)C(C)CC (centres undefined) > 76.9 µM
O=C(CCC1COc2ccccc2O1)Nc1ccc(Cl)cn1 (centres undefined) > 76.9 µM
O=C(Nc1cc(C(F)(F)F)ccc1N1CCOCC1)C1Cc2ccccc2CN1C(=O)c1ccco1 (centres undefined) > 76.9 µM
CCOC(=O)c1c(C)c(C(=O)Nc2ccc3c(c2)OCCO3)c(C)n1CC > 76.9 µM
CCOC(=O)c1ccc(NC(=O)Cn2cccc2)cc1 > 76.9 µM
CCOCCCNC(=O)C(NC(=O)C1CCC(=O)N1)c1ccc(C)cc1 (centres undefined) > 76.9 µM
O=c1cc(-c2ccccc2)nc(N2CCN(Cc3ccccc3)CC2)[nH]1 > 76.9 µM
COc1ccc(C(=O)NC(=O)CSc2nnc(-c3ccco3)n2-c2ccccc2)cc1 > 76.9 µM
Cc1cnc(NC(=O)CSc2ncc(-c3ccccc3)n2Cc2ccco2)s1 > 76.9 µM
O=C(COC(=O)c1cc(S(=O)(=O)N2CCOCC2)ccc1O)NCC1CCCO1 (centres undefined) > 76.9 µM
COc1ccc(C2Nc3ccccc3C(=O)N2Cc2ccco2)cc1COc1ccc(NC(C)=O)cc1 (centres undefined) > 76.9 µM
O=C(CN(c1ccc2c(c1)OCCO2)S(=O)(=O)c1ccccc1)NCc1ccco1 > 76.9 µM
COc1ccc(-n2nnc3c(=O)n(CC(=O)NCC4CCCO4)cnc32)cc1 (centres undefined) > 76.9 µM
FC(F)(F)c1nc(N2CCN(c3ccccc3)CC2)nc2c1CCCCC2 > 76.9 µM
COCCN(CC(=O)Nc1ccc(F)cc1)S(=O)(=O)c1ccc(S(=O)(=O)N2CCCC2)cc1 > 76.9 µM
CN1CCN(S(=O)(=O)c2ccc(-c3noc(C4CCN(S(C)(=O)=O)CC4)n3)cc2)CC1 > 76.9 µM
Cc1nn(-c2ccccc2)c2sc(C(=O)c3c(N)n(C)c(=O)n(C)c3=O)cc12 > 76.9 µM
COC(=O)C1=CN(CCCN2CCCC2=O)C=C(C(=O)OC)C1c1cccs1 > 76.9 µM
